# Reference: the supplement of paper PMC8728848
# The other results are listed elsewhere or left out.
# B1: LFA (Limax flavus) (protein)
# chain: MSVLFLAASFLLLASFELVAAQGCPRQDPGDWIVIQRRLNADVNFYRGWADYKHGFGDLRCNFWLGNEKIHQLTSHGRYKLRVEFTFNNKSYFAEYSTFKILGEADKYKLQVGGYSGNAGDALTFHNGMAFSTNDRDNDADSIDCAKVYHGAWWYKTCHESNLNGKWGSKKYGEGLNWKAKTTFTATATSSLLKIKALK
# Assays:
# Assay in all cases: glycan array binding signal (z-score within array); higher = stronger binding
# Conditions in all cases: glycan notation: IUPAC condensed, linker removed
# Glc(b1-4)Glc = molecular target: Glc(b1-4)Glc
# Procedure, shortened: (§1)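 Glycan array data came from 3228 arrays in the Consortium for Functional Glycomics database, and only arrays with an available protein sequence were kept. Glycan names were put into IUPAC-condensed notation, and columns mapping to the same glycan were averaged. The binding signal is a within-array Z-score, averaged across arrays of one protein sequence run at different concentrations or buffers and across linkers. A negative Z-score can be read as non-binding.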
# Glc(b1-6)Glc = molecular target: Glc(b1-6)Glc
# Procedure, shortened: as §1
# GlcA(b1-3)Gal = molecular target: GlcA(b1-3)Gal
# Procedure, shortened: as §1
# GlcA(b1-3)GlcNAc = molecular target: GlcA(b1-3)GlcNAc
# Procedure, shortened: as §1
# GlcA(b1-6)Gal = molecular target: GlcA(b1-6)Gal
# Procedure, shortened: as §1
# [1] = molecular target: GlcA3S(b1-3)Gal(b1-4)GlcNAc(b1-2)Man
# Procedure, shortened: as §1
# [2] = molecular target: GlcA3S(b1-3)Gal(b1-4)GlcNAc(b1-3)Gal(b1-4)Glc
# Procedure, shortened: as §1
# [3] = molecular target: GlcNAc(a1-3)Gal(b1-4)GlcNAc
# Procedure, shortened: as §1
# [4] = molecular target: GlcNAc(a1-4)Gal(b1-3)GlcNAc
# Procedure, shortened: as §1
# [5] = molecular target: GlcNAc(a1-4)Gal(b1-4)GalNAc
# Procedure, shortened: as §1
# [6] = molecular target: GlcNAc(a1-4)Gal(b1-4)GlcNAc
# Procedure, shortened: as §1
# [7] = molecular target: GlcNAc(a1-4)Gal(b1-4)GlcNAc(b1-3)Gal(b1-4)Glc
# Procedure, shortened: as §1
# [8] = molecular target: GlcNAc(a1-4)Gal(b1-4)GlcNAc(b1-3)Gal(b1-4)GlcNAc
# Procedure, shortened: as §1
# [9] = molecular target: GlcNAc(a1-4)Gal(b1-4)GlcNAc(b1-3)Gal(b1-4)GlcNAc(b1-3)Gal(b1-4)GlcNAc
# Procedure, shortened: as §1
# [10] = molecular target: GlcNAc(a1-4)Gal(b1-4)GlcNAc(b1-3)Gal(b1-4)[Fuc(a1-3)]GlcNAc(b1-3)Gal(b1-4)[Fuc(a1-3)]GlcNAc
# Procedure, shortened: as §1
# [11] = molecular target: GlcNAc(a1-6)Gal(b1-4)GlcNAc
# Procedure, shortened: as §1
# [12] = molecular target: GlcNAc(b1-2)Gal(b1-3)GalNAc
# Procedure, shortened: as §1
# [13] = molecular target: GlcNAc(b1-2)Man(a1-3)[GlcNAc(b1-2)Man(a1-6)]Man(b1-4)GlcNAc(b1-4)GlcNAc
# Procedure, shortened: as §1
# [14] = molecular target: GlcNAc(b1-2)Man(a1-3)[GlcNAc(b1-2)Man(a1-6)]Man(b1-4)GlcNAc(b1-4)[Fuc(a1-6)]GlcNAc
# Procedure, shortened: as §1
# [15] = molecular target: GlcNAc(b1-2)Man(a1-3)[GlcNAc(b1-4)][GlcNAc(b1-2)Man(a1-6)]Man(b1-4)GlcNAc(b1-4)GlcNAc
# Procedure, shortened: as §1
# [16] = molecular target: GlcNAc(b1-2)Man(a1-3)[GlcNAc(b1-4)][GlcNAc(b1-2)Man(a1-6)]Man(b1-4)GlcNAc(b1-4)[Fuc(a1-6)]GlcNAc
# Procedure, shortened: as §1
# [17] = molecular target: GlcNAc(b1-2)[GlcNAc(b1-4)]Man(a1-3)[GlcNAc(b1-2)Man(a1-6)]Man(b1-4)GlcNAc(b1-4)GlcNAc
# Procedure, shortened: as §1
# [18] = molecular target: GlcNAc(b1-2)[GlcNAc(b1-4)]Man(a1-3)[GlcNAc(b1-4)][GlcNAc(b1-2)Man(a1-6)]Man(b1-4)GlcNAc(b1-4)GlcNAc
# Procedure, shortened: as §1
# [19] = molecular target: GlcNAc(b1-2)[GlcNAc(b1-4)]Man(a1-3)[GlcNAc(b1-4)][GlcNAc(b1-2)[GlcNAc(b1-6)]Man(a1-6)]Man(b1-4)GlcNAc(b1-4)GlcNAc
# Procedure, shortened: as §1
# [20] = molecular target: GlcNAc(b1-2)[GlcNAc(b1-4)]Man(a1-3)[GlcNAc(b1-4)][GlcNAc(b1-2)[GlcNAc(b1-6)]Man(a1-6)]Man(b1-4)GlcNAc(b1-4)[Fuc(a1-6)]GlcNAc
# Procedure, shortened: as §1
# [21] = molecular target: GlcNAc(b1-2)[GlcNAc(b1-6)]Man(a1-6)[GlcNAc(b1-2)Man(a1-3)]Man(b1-4)GlcNAc(b1-4)GlcNAc
# Procedure, shortened: as §1
# [22] = molecular target: GlcNAc(b1-2)[GlcNAc(b1-6)]Man(a1-6)[GlcNAc(b1-2)Man(a1-3)]Man(b1-4)GlcNAc(b1-4)[Fuc(a1-6)]GlcNAc
# Procedure, shortened: as §1
# [23] = molecular target: GlcNAc(b1-2)[GlcNAc(b1-6)]Man(a1-6)[GlcNAc(b1-4)][GlcNAc(b1-2)Man(a1-3)]Man(b1-4)GlcNAc(b1-4)GlcNAc
# Procedure, shortened: as §1
# GlcNAc(b1-3)Fuc = molecular target: GlcNAc(b1-3)Fuc
# Procedure, shortened: as §1
# GlcNAc(b1-3)Gal = molecular target: GlcNAc(b1-3)Gal
# Procedure, shortened: as §1
# [24] = molecular target: GlcNAc(b1-3)Gal(b1-3)GalNAc
# Procedure, shortened: as §1
# GlcNAc(b1-3)Gal(b1-4)Glc = molecular target: GlcNAc(b1-3)Gal(b1-4)Glc
# Procedure, shortened: as §1
# [25] = molecular target: GlcNAc(b1-3)Gal(b1-4)GlcNAc
# Procedure, shortened: as §1
# [26] = molecular target: GlcNAc(b1-3)Gal(b1-4)GlcNAc(b1-2)Man(a1-3)[GlcNAc(b1-3)Gal(b1-4)GlcNAc(b1-2)Man(a1-6)]Man(b1-4)GlcNAc(b1-4)GlcNAc
# Procedure, shortened: as §1
# [27] = molecular target: GlcNAc(b1-3)Gal(b1-4)GlcNAc(b1-2)Man(a1-3)[GlcNAc(b1-3)Gal(b1-4)GlcNAc(b1-2)Man(a1-6)]Man(b1-4)GlcNAc(b1-4)[Fuc(a1-6)]GlcNAc
# Procedure, shortened: as §1
# [28] = molecular target: GlcNAc(b1-3)Gal(b1-4)GlcNAc(b1-2)[GlcNAc(b1-3)Gal(b1-4)GlcNAc(b1-6)]Man(a1-6)[GlcNAc(b1-3)Gal(b1-4)GlcNAc(b1-2)Man(a1-3)]Man(b1-4)GlcNAc(b1-4)GlcNAc
# Procedure, shortened: as §1
# [29] = molecular target: GlcNAc(b1-3)Gal(b1-4)GlcNAc(b1-3)Gal(b1-4)GlcNAc
# Procedure, shortened: as §1
# [30] = molecular target: GlcNAc(b1-3)Gal(b1-4)GlcNAc(b1-3)Gal(b1-4)GlcNAc(b1-2)Man(a1-3)[GlcNAc(b1-3)Gal(b1-4)GlcNAc(b1-3)Gal(b1-4)GlcNAc(b1-2)Man(a1-6)]Man(b1-4)GlcNAc(b1-4)GlcNAc
# Procedure, shortened: as §1
# [31] = molecular target: GlcNAc(b1-3)Gal(b1-4)GlcNAc(b1-3)Gal(b1-4)GlcNAc(b1-2)Man(a1-3)[GlcNAc(b1-3)Gal(b1-4)GlcNAc(b1-3)Gal(b1-4)GlcNAc(b1-2)Man(a1-6)]Man(b1-4)GlcNAc(b1-4)[Fuc(a1-6)]GlcNAc
# Procedure, shortened: as §1
# [32] = molecular target: GlcNAc(b1-3)Gal(b1-4)GlcNAc(b1-3)Gal(b1-4)GlcNAc(b1-2)[GlcNAc(b1-3)Gal(b1-4)GlcNAc(b1-3)Gal(b1-4)GlcNAc(b1-6)]Man(a1-6)[GlcNAc(b1-3)Gal(b1-4)GlcNAc(b1-3)Gal(b1-4)GlcNAc(b1-2)Man(a1-3)]Man(b1-4)GlcNAc(b1-4)[Fuc(a1-6)]GlcNAc
# Procedure, shortened: as §1
# [33] = molecular target: GlcNAc(b1-3)Gal(b1-4)GlcNAc(b1-3)Gal(b1-4)GlcNAc(b1-3)Gal(b1-4)GlcNAc(b1-2)Man(a1-3)[GlcNAc(b1-3)Gal(b1-4)GlcNAc(b1-3)Gal(b1-4)GlcNAc(b1-3)Gal(b1-4)GlcNAc(b1-2)Man(a1-6)]Man(b1-4)GlcNAc(b1-4)GlcNAc
# Procedure, shortened: as §1
# [34] = molecular target: GlcNAc(b1-3)Gal(b1-4)GlcNAc(b1-3)Gal(b1-4)GlcNAc(b1-3)Gal(b1-4)GlcNAc(b1-2)Man(a1-3)[GlcNAc(b1-3)Gal(b1-4)GlcNAc(b1-3)Gal(b1-4)GlcNAc(b1-3)Gal(b1-4)GlcNAc(b1-2)Man(a1-6)]Man(b1-4)GlcNAc(b1-4)[Fuc(a1-6)]GlcNAc
# Procedure, shortened: as §1
# [35] = molecular target: GlcNAc(b1-3)Gal(b1-4)GlcNAc(b1-3)Gal(b1-4)GlcNAc(b1-3)Gal(b1-4)GlcNAc(b1-2)[GlcNAc(b1-3)Gal(b1-4)GlcNAc(b1-3)Gal(b1-4)GlcNAc(b1-3)Gal(b1-4)GlcNAc(b1-6)]Man(a1-6)[GlcNAc(b1-3)Gal(b1-4)GlcNAc(b1-3)Gal(b1-4)GlcNAc(b1-3)Gal(b1-4)GlcNAc(b1-2)Man(a1-3)]Man(b1-4)GlcNAc(b1-4)[Fuc(a1-6)]GlcNAc
# Procedure, shortened: as §1
# [36] = molecular target: GlcNAc(b1-3)Gal(b1-4)GlcNAc(b1-3)Gal(b1-4)GlcNAc(b1-3)Gal(b1-4)GlcNAc(b1-3)Gal(b1-4)GlcNAc(b1-2)Man(a1-3)[GlcNAc(b1-3)Gal(b1-4)GlcNAc(b1-3)Gal(b1-4)GlcNAc(b1-3)Gal(b1-4)GlcNAc(b1-3)Gal(b1-4)GlcNAc(b1-2)Man(a1-6)]Man(b1-4)GlcNAc(b1-4)GlcNAc
# Procedure, shortened: as §1
# [37] = molecular target: GlcNAc(b1-3)Gal(b1-4)GlcNAc(b1-3)Gal(b1-4)GlcNAc(b1-3)Gal(b1-4)GlcNAc(b1-3)Gal(b1-4)GlcNAc(b1-2)Man(a1-3)[GlcNAc(b1-3)Gal(b1-4)GlcNAc(b1-3)Gal(b1-4)GlcNAc(b1-3)Gal(b1-4)GlcNAc(b1-3)Gal(b1-4)GlcNAc(b1-2)Man(a1-6)]Man(b1-4)GlcNAc(b1-4)[Fuc(a1-6)]GlcNAc
# Procedure, shortened: as §1
binder,measurement,setting,value
B1,glycan array binding signal (z-score),Glc(b1-4)Glc,-0.259
same,glycan array binding signal (z-score),Glc(b1-6)Glc,-0.222
same,glycan array binding signal (z-score),GlcA(b1-3)Gal,-0.143
same,glycan array binding signal (z-score),GlcA(b1-3)GlcNAc,-0.33
same,glycan array binding signal (z-score),GlcA(b1-6)Gal,-0.172
same,glycan array binding signal (z-score),[1],-0.073
same,glycan array binding signal (z-score),[2],-0.199
same,glycan array binding signal (z-score),[3],-0.145
same,glycan array binding signal (z-score),[4],-0.253
same,glycan array binding signal (z-score),[5],-0.191
same,glycan array binding signal (z-score),[6],-0.049
same,glycan array binding signal (z-score),[7],-0.062
same,glycan array binding signal (z-score),[8],-0.086
same,glycan array binding signal (z-score),[9],-0.098
same,glycan array binding signal (z-score),[10],-0.075
same,glycan array binding signal (z-score),[11],-0.363
same,glycan array binding signal (z-score),[12],0.358
same,glycan array binding signal (z-score),[13],-0.239
same,glycan array binding signal (z-score),[14],-0.261
same,glycan array binding signal (z-score),[15],-0.317
same,glycan array binding signal (z-score),[16],-0.303
same,glycan array binding signal (z-score),[17],-0.301
same,glycan array binding signal (z-score),[18],-0.322
same,glycan array binding signal (z-score),[19],-0.213
same,glycan array binding signal (z-score),[20],0.243
same,glycan array binding signal (z-score),[21],-0.242
same,glycan array binding signal (z-score),[22],-0.347
same,glycan array binding signal (z-score),[23],-0.03
same,glycan array binding signal (z-score),GlcNAc(b1-3)Fuc,-0.355
same,glycan array binding signal (z-score),GlcNAc(b1-3)Gal,-0.16
same,glycan array binding signal (z-score),[24],0.309
same,glycan array binding signal (z-score),GlcNAc(b1-3)Gal(b1-4)Glc,-0.284
same,glycan array binding signal (z-score),[25],-0.243
same,glycan array binding signal (z-score),[26],-0.217
same,glycan array binding signal (z-score),[27],-0.066
same,glycan array binding signal (z-score),[28],0.062
same,glycan array binding signal (z-score),[29],-0.289
same,glycan array binding signal (z-score),[30],1.96
same,glycan array binding signal (z-score),[31],0.015
same,glycan array binding signal (z-score),[32],0.76
same,glycan array binding signal (z-score),[33],0.458
same,glycan array binding signal (z-score),[34],0.314
same,glycan array binding signal (z-score),[35],1.25
same,glycan array binding signal (z-score),[36],0.512
same,glycan array binding signal (z-score),[37],0.07
